# In the RNAGym collection of RNA variant scans (doi:10.1073/pnas.2313332121):
# Variants at the background level are over-represented here.
# B1: TPR 5TU (parent)
# chain: GGAUCUUCUCGAUCUAACAAAAAAGACAAAUCUGCCACAAAGCUUGAGAGCAUCUUCGGAUGCAGAGGCGGCAGCCUUCGGUGGCGCGAUAGCGCCAACGUUCUCAACUAUGACACGCAAAACGCGUGCUCCGUUGAAUGGAGUUUAUCAUG
# Variants of: B1
# Assay: polymerase ribozyme fitness, log enrichment relative to wild type (log ratio); higher = more active; in vitro selection for triplet polymerase activity
# How it was run: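 The heterodimeric triplet polymerase ribozyme's subunits were each mutagenized into PCR-built libraries and transcribed. Every library was selected once, in triplicate, by annealing with a biotinylated primer, the partner subunit and triplets, incubating frozen at −7 °C, gel-excising extended constructs, capturing on streptavidin beads and running RT-PCR. Input and output libraries were Illumina-sequenced, with genotypes kept only at ≥10 input reads and ≥1 read per output. Fitness, from inverse-variance-weighted replicate averages, is the base-2 logarithm of genotype enrichment over wild-type enrichment.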
row,Variant,polymerase ribozyme fitness (log ratio)
1,A29G U82C C87G,≤ -4.2
2,A29C G70C U77A G88A A142U,≤ -4.2
3,A30C G92A G100C,≤ -4.2
4,A29U C57G A107C G128U G141C,≤ -4.2
5,A29U G59U U82G C93U C114G G141C,≤ -4.2
6,A30C C51U,≤ -4.2
7,A29G G86A C95U A147U,≤ -4.2
8,A29U C38U A39G U101G,≤ -4.2
9,A29U U44A C51U A73U C85G,≤ -4.2
10,A30G A110C,≤ -4.2
11,A29U U45C G86A U101G G112A C116G G117A,≤ -4.2
12,A30G A49U C85G C103U A110C,≤ -4.2
13,A29U C103U,≤ -4.2
14,A30G C76A A91G G100A,≤ -4.2
15,A29C U61G,≤ -4.2
16,A29U U102G G141U,≤ -4.2
17,A30G C85U,-3.06
18,A29G G81U A107C,≤ -4.2
19,A29U U53A A91U U102A,≤ -4.2
20,A29U G71C C93U U109G G124C,≤ -4.2
21,A29C G68A C93A G126A,≤ -4.2
22,A30G G128U C129G,≤ -4.2
23,A30G A39U A47C U56A G94C C95U C99U A107U G126A,≤ -4.2
24,A30G A66C G84A A150C,≤ -4.2

row,Variant,polymerase ribozyme fitness (log ratio)
1,A30C G84A U148C,≤ -4.2
2,A29U A40U G83C G133A G152C,≤ -4.2
3,A30G C32U G94C A115C,≤ -4.2
4,A30C U55C A98G C118U A147C,≤ -4.2
5,A30U A39C U45A U55A U77G C87U C95U,≤ -4.2
6,A29U C36A C85G,≤ -4.2
7,A29U G141C,-3.49
8,A29U C99U U145G,≤ -4.2
9,A29U U61A C99U U101G A107C U130G U135A,≤ -4.2
10,A29C G140U,≤ -4.2
11,A29U U44G G50U C75A C96A C105U C125A,≤ -4.2
12,A30C A49G G86A C96A C105G C108U U145C,≤ -4.2
13,A30C U31G G59U C95A C129U,≤ -4.2
14,A29C G67C A89U G94U,≤ -4.2
15,A29U C87U,≤ -4.2
16,A30C A39U G50A G94C G124U,≤ -4.2
17,A30G U77A A150G,≤ -4.2
18,A30G C76U U135G,≤ -4.2
19,A29G G67U C87U U145A,≤ -4.2
20,A29C U56A G83U,≤ -4.2
21,A30C G81A G84A G100C A150G,≤ -4.2
22,A29G U45A G50A G86A A110G A119U,≤ -4.2
23,A29U C87G A147G,≤ -4.2
24,A29U A40U C95G G100A G140U A142U,≤ -4.2

row,Variant,polymerase ribozyme fitness (log ratio)
1,A29U G140C G143U,≤ -4.2
2,A30C A47G G74A U90G A121G G140U,≤ -4.2
3,A30C A47C C85G C93A A138G,≤ -4.2
4,A29C G92U G136A,≤ -4.2
5,A30G A49C C93G,≤ -4.2
6,A30C C32A G74U C76A U139A,≤ -4.2
7,A30C A49C C93G A142C,≤ -4.2
8,A29C G83A,≤ -4.2
9,A30C A150C,≤ -4.2
10,A29U C75G C85A U109C G128A C129G A147C U151G,≤ -4.2
11,A30G A40C A47G G50U C96U,≤ -4.2
12,A29U A37C G80A G88C G133U,≤ -4.2
13,A29G C35G A64U C95G C125U U134C G152U,≤ -4.2
14,A30G A41U U45A G50A C51U U53G A91C C108G C114G,≤ -4.2
15,A29G C54A A91U C95U,≤ -4.2
16,A29G C43U C51U A66U C76U G92A,≤ -4.2
17,A30C G50A A52C A66G G80A C85A C125A,≤ -4.2
18,A29U A37G C54U C87G C116A,≤ -4.2
19,A29G U31C C36U C54G U82C G86C C93U,≤ -4.2
20,A29U C95U,-3.54
21,A29U C95G,≤ -4.2
22,A29U U45A U53A G84U C95A C149A,≤ -4.2
23,A29G C51A G59A C87G G133C G141C,≤ -4.2
24,A29U U31A G80A C96A A107U,≤ -4.2

row,Variant,polymerase ribozyme fitness (log ratio)
1,A30C C85A A91U A97U,≤ -4.2
2,A29U C93A,≤ -4.2
3,A29C U44G C57U G59A C93U,≤ -4.2
4,A29G C95G U127G,≤ -4.2
5,A29G A49C C51U A91G C95G C118A A120C,≤ -4.2
6,A29C U44A G58C A89C C99G G128A G141C,≤ -4.2
7,A30G C51A G92A U135G,≤ -4.2
8,A29G U45A A64G G68U C85A U139G,≤ -4.2
9,A30G C85G C116U U146C,≤ -4.2
10,A30G U53A A110U U127C A147C,≤ -4.2
11,A29U U44A C54A C79G C123A A137G G140A,≤ -4.2
12,A29U A66U G92A U111G,≤ -4.2
13,A29U G88C C105G C123U U144A,≤ -4.2
14,A30C G46U G94U G143A,≤ -4.2
15,A29U C36U U55A C85G,≤ -4.2
16,A30C A73G C79G G117U A138U,≤ -4.2
17,A30C C32A G48C C57U C93A A98C,≤ -4.2
18,A30G A52C G83A A89G C116U A150G U151G,≤ -4.2
19,A29C U33G U44G A47G C96U C103G,≤ -4.2
20,A30G U82G A122G U146G,-4.18
21,A29G A30U C57A U61G G80U U82G G94A G112U G140C,≤ -4.2
22,A30G A49C C75U C95G C99A U144A,≤ -4.2
23,A29U A41U A47U G86U U148A,≤ -4.2
24,A29U G42U G84U C114A,≤ -4.2

row,Variant,polymerase ribozyme fitness (log ratio)
1,A30C U111G C129U G136U,≤ -4.2
2,A29G A47U G58C A73G C85U C93U,≤ -4.2
3,A29C G67C G68C G71A G81U G83U C95U G126C G133A,≤ -4.2
4,A29U U55G G92C A107U,≤ -4.2
5,A30C G84A A98C A142U,≤ -4.2
6,A29C G71A G143U,≤ -4.2
7,A30G C75G C93U A121G,≤ -4.2
8,A30C C35U U44A U61A G62A G141A C149U,≤ -4.2
9,A30C C87G U101C,≤ -4.2
10,A30C A52U C96G U102G G117A,≤ -4.2
11,A29G G50A C132G U144G,≤ -4.2
12,A30G A47U C95U U135G G140C,≤ -4.2
13,A29U U55A G62C,≤ -4.2
14,A30C U53G C76G U90C G136A C149A,≤ -4.2
15,A29U A40G,-4.2
16,A29U C93A U146G,≤ -4.2
17,A29G A106G C116A G140U U145G,≤ -4.2
18,A29G A30U C43U G50A G67U C79G G88U C99A G141A,≤ -4.2
19,A30G U44A A49U C87U G88A G92A A115U,≤ -4.2
20,A30G A41C,-3.51
21,A30G C32A G50C C79A G84A A98C,≤ -4.2
22,A29U A73G G92U G100U,≤ -4.2
23,A30C A52G A106C U146C,≤ -4.2
24,A29U U44A U101C A106C A113C A122U G140U,≤ -4.2

row,Variant,polymerase ribozyme fitness (log ratio)
1,A29U G59A C85G G92A C116G A120U,≤ -4.2
2,A29G G81U G92A C125U A138G,≤ -4.2
3,A30G C35A C85U A121G,≤ -4.2
4,A30G U55A G81C C95A A97U A115C G124A,≤ -4.2
5,A29U A30G C57G C105U C108U,≤ -4.2
6,A29U A47U G71A G86A U90A,≤ -4.2
7,A30C G68C C87A C105G A107U G117C A150C,≤ -4.2
8,A30C U56A G80U C93U C95G G100U A110C A115C U135A U139G,≤ -4.2
9,A29G G59A C79G G94A G141C A142G,≤ -4.2
10,A30C U55A C63G C69A A97C G100U A115G A119G,≤ -4.2
11,A29G G86A U101G C125G,≤ -4.2
12,A30G G50U G88A G140C A147U,≤ -4.2
13,A30G C85U C96G A115U,≤ -4.2
14,A29C U55A C57U U90G A91C U148G,≤ -4.2
15,A29U G50A U55G G81A C96A U145C,≤ -4.2
16,A29C U33A G50C U53G G68U G124A,≤ -4.2
17,A29U A40U G68U C69U G92A G140C,≤ -4.2
18,A30G G117U U135G,≤ -4.2
19,A30G A49C G88U A110G,≤ -4.2
20,A29G C43A A66U U101G G143U,≤ -4.2
21,A30G C51A U78C C85A C93A C114A,≤ -4.2
22,A30C C87G C123G G124A,≤ -4.2
23,A29U G50C G68C G136C,≤ -4.2
24,A29G A40G A91U C99G G133C,≤ -4.2

row,Variant,polymerase ribozyme fitness (log ratio)
1,A30C C43G U45A C87A C103A,≤ -4.2
2,A29G C32A U55A U77A U78G A91G C95U G112A U139G G140A,≤ -4.2
3,A29U G83C,≤ -4.2
4,A29U C76A C87A C93A C129A,≤ -4.2
5,A29G G50C C51A U53A A97U A98G C125A G128U G133A,≤ -4.2
6,A29U A41U U53A C79U A142C,≤ -4.2
7,A29C U44A G59U C72U C131G,≤ -4.2
8,A30G C79A,≤ -4.2
9,A29U U56A C95U A107G C118G G143A,≤ -4.2
10,A30G C51A U55A C57A,≤ -4.2
11,A29U C57U U61C A66C C87A C123U,≤ -4.2
12,A30C U33A C75A U82A G83A C95G A138G,≤ -4.2
13,A30G C36A A39G A98U,≤ -4.2
14,A29U G67A C75U C114U,≤ -4.2
15,A30G C36G A37C A64U G68A A91G A98U A121G U145C C149U,≤ -4.2
16,A30G C63U C87A C105U,≤ -4.2
17,A29G A49U A60C A91G G140C,≤ -4.2
18,A30C U53C G68U U109G U135G U148G,≤ -4.2
19,A30G C54G U134G G140C,≤ -4.2
20,A30U A39G A49U C72A U90C G94A C99A U102G A137C G141C,≤ -4.2
21,A30G G58U C76A A89U C105U A121U U146C,≤ -4.2
22,A29U A52C G68C C96U C99G A121U G126A A150U,≤ -4.2
23,A29U G46A C69G U78G G94U C96G C118G,≤ -4.2
